Reference: the supplement of paper PMC8728848
The other results are listed elsewhere or left out.

What was measured:
Assay in all cases: glycan array binding signal (z-score within array); higher = stronger binding
Conditions in all cases: glycan notation: IUPAC condensed, linker removed
[1] = target: Fuc(a1-2)Gal(b1-4)GlcNAc(b1-3)Gal(b1-4)GlcNAc(b1-3)Gal(b1-4)GlcNAc
Outline: (§1)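 The binding signal is a Z-score computed within each array and averaged over linkers. Arrays of the same protein sequence at different concentrations or buffers were also averaged together. Data originate from 3228 arrays in the Consortium for Functional Glycomics database, kept only where the protein sequence was available.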

[2] = target: Fuc(a1-2)Gal(b1-4)GlcNAc(b1-3)GalNAc
Outline: as §1

[3] = target: Fuc(a1-2)Gal(b1-4)GlcNAc(b1-3)[Fuc(a1-2)Gal(b1-4)GlcNAc(b1-6)]GalNAc
Outline: as §1

[4] = target: Fuc(a1-2)Gal(b1-4)GlcNAc(b1-3)[Fuc(a1-3)[Gal(b1-4)]GlcNAc(b1-6)]Gal(b1-4)Glc
Outline: as §1

[5] = target: Fuc(a1-2)Gal(b1-4)GlcNAc(b1-6)GalNAc
Outline: as §1

[6] = target: Fuc(a1-2)Gal(b1-4)GlcNAc6S
Outline: as §1

[7] = target: Fuc(a1-2)Gal(b1-4)[Fuc(a1-3)]GlcNAc
Outline: as §1

[8] = target: Fuc(a1-2)Gal(b1-4)[Fuc(a1-3)]GlcNAc(b1-2)Man(a1-3)[Fuc(a1-2)Gal(b1-4)[Fuc(a1-3)]GlcNAc(b1-2)Man(a1-6)]Man(b1-4)GlcNAc(b1-4)[Fuc(a1-6)]GlcNAc
Outline: as §1

[9] = target: Fuc(a1-2)Gal(b1-4)[Fuc(a1-3)]GlcNAc(b1-2)[Fuc(a1-2)Gal(b1-4)[Fuc(a1-3)]GlcNAc(b1-4)]Man(a1-3)[Fuc(a1-2)Gal(b1-4)[Fuc(a1-3)]GlcNAc(b1-2)Man(a1-6)]Man(b1-4)GlcNAc(b1-4)GlcNAc
Outline: as §1

[10] = target: Fuc(a1-2)Gal(b1-4)[Fuc(a1-3)]GlcNAc(b1-3)Gal(b1-4)[Fuc(a1-3)]GlcNAc
Outline: as §1

[11] = target: Fuc(a1-2)Gal(b1-4)[Fuc(a1-3)]GlcNAc(b1-3)Gal(b1-4)[Fuc(a1-3)]GlcNAc(b1-3)Gal(b1-4)[Fuc(a1-3)]GlcNAc
Outline: as §1

[12] = target: Fuc(a1-2)Gal(b1-4)[Fuc(a1-3)]GlcNAc(b1-3)GalNAc
Outline: as §1

[13] = target: Fuc(a1-2)Gal(b1-4)[Fuc(a1-3)]GlcNAc(b1-3)[Neu5Ac(a2-6)Gal(b1-4)GlcNAc(b1-6)]Gal(b1-4)Glc
Outline: as §1

[14] = target: Fuc(a1-2)Gal3S(b1-4)GlcNAc
Outline: as §1

[15] = target: Fuc(a1-2)Gal6S(b1-3)GlcNAc
Outline: as §1

[16] = target: Fuc(a1-2)Gal6S(b1-3)GlcNAc6S
Outline: as §1

Fuc(a1-2)Gal6S(b1-4)Glc = target: Fuc(a1-2)Gal6S(b1-4)Glc
Outline: as §1

[17] = target: Fuc(a1-2)Gal6S(b1-4)Glc6S
Outline: as §1

Fuc(a1-2)[Gal(a1-3)]Gal = target: Fuc(a1-2)[Gal(a1-3)]Gal
Outline: as §1

[18] = target: Fuc(a1-2)[Gal(a1-3)]Gal(b1-3)GalNAc
Outline: as §1

[19] = target: Fuc(a1-2)[Gal(a1-3)]Gal(b1-3)GalNAc(b1-3)Gal(a1-4)Gal(b1-4)Glc
Outline: as §1

[20] = target: Fuc(a1-2)[Gal(a1-3)]Gal(b1-3)GlcNAc
Outline: as §1

[21] = target: Fuc(a1-2)[Gal(a1-3)]Gal(b1-3)GlcNAc(b1-2)Man(a1-3)[Fuc(a1-2)[Gal(a1-3)]Gal(b1-3)GlcNAc(b1-2)Man(a1-6)]Man(b1-4)GlcNAc(b1-4)GlcNAc
Outline: as §1

[22] = target: Fuc(a1-2)[Gal(a1-3)]Gal(b1-3)GlcNAc(b1-2)Man(a1-3)[Fuc(a1-2)[Gal(a1-3)]Gal(b1-3)GlcNAc(b1-2)Man(a1-6)]Man(b1-4)GlcNAc(b1-4)[Fuc(a1-6)]GlcNAc
Outline: as §1

[23] = target: Fuc(a1-2)[Gal(a1-3)]Gal(b1-3)GlcNAc(b1-3)GalNAc
Outline: as §1

[24] = target: Fuc(a1-2)[Gal(a1-3)]Gal(b1-3)GlcNAc(b1-6)GalNAc
Outline: as §1

[25] = target: Fuc(a1-2)[Gal(a1-3)]Gal(b1-4)Glc
Outline: as §1

[26] = target: Fuc(a1-2)[Gal(a1-3)]Gal(b1-4)GlcNAc
Outline: as §1

[27] = target: Fuc(a1-2)[Gal(a1-3)]Gal(b1-4)GlcNAc(b1-2)Man
Outline: as §1

[28] = target: Fuc(a1-2)[Gal(a1-3)]Gal(b1-4)GlcNAc(b1-2)Man(a1-3)[Fuc(a1-2)[Gal(a1-3)]Gal(b1-4)GlcNAc(b1-2)Man(a1-6)]Man(b1-4)GlcNAc(b1-4)GlcNAc
Outline: as §1

B1: B1567 (Bifidobacterium sp) (protein)
chain: MKFTTAKKAVALTGAVAMLVSVAACGSDSGKSSQPAQDSDVKEITVWAWEPSLTQVAKDFEKETGIKVDLKNVGTNTKEYTQLDNAIEAGSGAPDVAQVEYYAVPQYAIKGNLLDITDKTSGYKDFYTPGPWASVQFAGKVYGLPMDSGPMAFFYNKEVFDKAGVDAEQIKTWDQYYDAAKKIHALGDNYYITSDTGDAGFFDSMTWLAGAKPFQTSSDGSEVTVNLTEDKGVKTFTDFWQKLLDEGLLDTKTAGWSEDWFKGMVDGTIASLFTGAWMPANLANSAADGAGKWRVTQMPTADGSTTNSENGGSSLAVLASTKKADAAYQFIEYANHGAGVATRVAGGAFPADKASLEKDSFKNATTVKNADGQDVDYFGGQKYNEVLAQAAENVSSGYQFLPFEVKARTIFGDYFGKSYTGDQKLSDGVAAWQKALQDYGKDQGFTVK
glycan array binding signal (z-score) [1]: -0.022 | glycan array binding signal (z-score) [2]: -0.127 | glycan array binding signal (z-score) [3]: -0.135 | glycan array binding signal (z-score) [4]: -0.091 | glycan array binding signal (z-score) [5]: 0.021 | glycan array binding signal (z-score) [6]: -0.121 | glycan array binding signal (z-score) [7]: -0.12 | glycan array binding signal (z-score) [8]: -0.075 | glycan array binding signal (z-score) [9]: -0.056 | glycan array binding signal (z-score) [10]: -0.104 | glycan array binding signal (z-score) [11]: 0.016 | glycan array binding signal (z-score) [12]: 0.016 | glycan array binding signal (z-score) [13]: -0.127 | glycan array binding signal (z-score) [14]: -0.099 | glycan array binding signal (z-score) [15]: -0.09 | glycan array binding signal (z-score) [16]: -0.077 | glycan array binding signal (z-score) (Fuc(a1-2)Gal6S(b1-4)Glc): 0.053 | glycan array binding signal (z-score) [17]: -0.068 | glycan array binding signal (z-score) (Fuc(a1-2)[Gal(a1-3)]Gal): -0.123 | glycan array binding signal (z-score) [18]: -0.099 | glycan array binding signal (z-score) [19]: -0.093 | glycan array binding signal (z-score) [20]: -0.11 | glycan array binding signal (z-score) [21]: 0.044 | glycan array binding signal (z-score) [22]: -0.036 | glycan array binding signal (z-score) [23]: -0.097 | glycan array binding signal (z-score) [24]: -0.109 | glycan array binding signal (z-score) [25]: -0.174 | glycan array binding signal (z-score) [26]: -0.012 | glycan array binding signal (z-score) [27]: -0.112 | glycan array binding signal (z-score) [28]: -0.053
